# The list shows a part of the results. Binding of human transcription factors and regulators to the viral nucleoprotein by AlphaScreen, crude cell-free proteins, amounts not normalised, one pass. Fold of the Venus control; higher = more signal. No active / inactive call. Single-pass screen; sequences are the whole Swiss-Prot entries looked up by name.
# B1: IKBKB, O14920 (protein)
# chain: MSWSPSLTTQTCGAWEMKERLGTGGFGNVIRWHNQETGEQIAIKQCRQELSPRNRERWCLEIQIMRRLTHPNVVAARDVPEGMQNLAPNDLPLLAMEYCQGGDLRKYLNQFENCCGLREGAILTLLSDIASALRYLHENRIIHRDLKPENIVLQQGEQRLIHKIIDLGYAKELDQGSLCTSFVGTLQYLAPELLEQQKYTVTVDYWSFGTLAFECITGFRPFLPNWQPVQWHSKVRQKSEVDIVVSEDLNGTVKFSSSLPYPNNLNSVLAERLEKWLQLMLMWHPRQRGTDPTYGPNGCFKALDDILNLKLVHILNMVTGTIHTYPVTEDESLQSLKARIQQDTGIPEEDQELLQEAGLALIPDKPATQCISDGKLNEGHTLDMDLVFLFDNSKITYETQISPRPQPESVSCILQEPKRNLAFFQLRKVWGQVWHSIQTLKEDCNRLQQGQRAAMMNLLRNNSCLSKMKNSMASMSQQLKAKLDFFKTSIQIDLEKYSEQTEFGITSDKLLLAWREMEQAVELCGRENEVKLLVERMMALQTDIVDLQRSPMGRKQGGTLDDLEEQARELYRRLREKPRDQRTEGDSQEMVRLLLQAIQSFEKKVRVIYTQLSKTVVCKQKALELLPKVEEVVSLMNEDEKTVVRLQEKRQKELWNLLKIACSKVRGPVSGSPDSMNASRLSQPGQLMSQPSTASNSLPEPAKKSEELVAEAHNLCTLLENAIQDTVREQDQSFTALDWSWLQTEEEEHSCLEQAS
# B2: CEBPD, P49716 (protein)
# chain: MSAALFSLDGPARGAPWPAEPAPFYEPGRAGKPGRGAEPGALGEPGAAAPAMYDDESAIDFSAYIDSMAAVPTLELCHDELFADLFNSNHKAGGAGPLELLPGGPARPLGPGPAAPRLLKREPDWGDGDAPGSLLPAQVAACAQTVVSLAAAGQPTPPTSPEPPRSSPRQTPAPGPAREKSAGKRGPDRGSPEYRQRRERNNIAVRKSRDKAKRRNQEMQQKLVELSAENEKLHQRVEQLTRDLAGLRQFFKQLPSPPFLPAAGTADCR
# B3: SCRT1, Q9BWW7 (protein)
# chain: MPRSFLVKKVKLDAFSSADLESAYGRARSDLGAPLHDKGYLSDYVGPSSVYDGDAEAALLKGPSPEPMYAAAVRGELGPAAAGSAPPPTPRPELATAAGGYINGDAAVSEGYAADAFFITDGRSRRKASNAGAAAAPSTASAAAPDGDAGGGGGAGGRSLGSGPGGRGGTRAGAGTEARAGPGAAGAGGRHACGECGKTYATSSNLSRHKQTHRSLDSQLARRCPTCGKVYVSMPAMAMHLLTHDLRHKCGVCGKAFSRPWLLQGHMRSHTGEKPFGCAHCGKAFADRSNLRAHMQTHSAFKHFQCKRCKKSFALKSYLNKHYESACFKGGAGGPAAPAPPQLSPVQA
# B4: ATF5, Q9Y2D1 (protein)
# chain: MSLLATLGLELDRALLPASGLGWLVDYGKLPPAPAPLAPYEVLGGALEGGLPVGGEPLAGDGFSDWMTERVDFTALLPLEPPLPPGTLPQPSPTPPDLEAMASLLKKELEQMEDFFLDAPPLPPPSPPPLPPPPLPPAPSLPLSLPSFDLPQPPVLDTLDLLAIYCRNEAGQEEVGMPPLPPPQQPPPPSPPQPSRLAPYPHPATTRGDRKQKKRDQNKSAALRYRQRKRAEGEALEGECQGLEARNRELKERAESVEREIQYVKDLLIEVYKARSQRTRSC
# B5: DACH1, Q9UI36 (protein)
# chain: MAVPAALIPPTQLVPPQPPISTSASSSGTTTSTSSATSSPAPSIGPPASSGPTLFRPEPIASAAAAAATVTSTGGGGGGGGSGGGGGSSGNGGGGGGGGGGSNCNPNLAAASNGSGGGGGGISAGGGVASSTPINASTGSSSSSSSSSSSSSSSSSSSSSSSSCGPLPGKPVYSTPSPVENTPQNNECKMVDLRGAKVASFTVEGCELICLPQAFDLFLKHLVGGLHTVYTKLKRLEITPVVCNVEQVRILRGLGAIQPGVNRCKLISRKDFETLYNDCTNASSRPGRPPKRTQSVTSPENSHIMPHSVPGLMSPGIIPPTGLTAAAAAAAAATNAAIAEAMKVKKIKLEAMSNYHASNNQHGADSENGDMNSSVGSSDGSWDKETLPSSPSQGPQASITHPRMPGARSLPLSHPLNHLQQSHLLPNGLELPFMMMPHPLIPVSLPPASVTMAMSQMNHLSTIANMAAAAQVQSPPSRVETSVIKERVPDSPSPAPSLEEGRRPGSHPSSHRSSSVSSSPARTESSSDRIPVHQNGLSMNQMLMGLSPNVLPGPKEGDLAGHDMGHESKRMHIEKDETPLSTPTARDSLDKLSLTGHGQPLPPGFPSPFLFPDGLSSIETLLTNIQGLLKVAIDNARAQEKQVQLEKTELKMDFLRERELRETLEKQLAMEQKNRAIVQKRLKKEKKAKRKLQEALEFETKRREQAEQTLKQAASTDSLRVLNDSLTPEIEADRSGGRTDAERTIQDGRLYLKTTVMY
# B6: ETV2, O00321 (protein)
# chain: MDLWNWDEASPQEVPPGNKLAGLEGAKLGFCFPDLALQGDTPTATAETCWKGTSSSLASFPQLDWGSALLHPEVPWGAEPDSQALPWSGDWTDMACTAWDSWSGASQTLGPAPLGPGPIPAAGSEGAAGQNCVPVAGEATSWSRAQAAGSNTSWDCSVGPDGDTYWGSGLGGEPRTDCTISWGGPAGPDCTTSWNPGLHAGGTTSLKRYQSSALTVCSEPSPQSDRASLARCPKTNHRGPIQLWQFLLELLHDGARSSCIRWTGNSREFQLCDPKEVARLWGERKRKPGMNYEKLSRGLRYYYRRDIVRKSGGRKYTYRFGGRVPSLAYPDCAGGGRGAETQ
# B7: AFF4, Q9UHB7 (protein)
# chain: MNREDRNVLRMKERERRNQEIQQGEDAFPPSSPLFAEPYKVTSKEDKLSSRIQSMLGNYDEMKDFIGDRSIPKLVAIPKPTVPPSADEKSNPNFFEQRHGGSHQSSKWTPVGPAPSTSQSQKRSSGLQSGHSSQRTSAGSSSGTNSSGQRHDRESYNNSGSSSRKKGQHGSEHSKSRSSSPGKPQAVSSLNSSHSRSHGNDHHSKEHQRSKSPRDPDANWDSPSRVPFSSGQHSTQSFPPSLMSKSNSMLQKPTAYVRPMDGQESMEPKLSSEHYSSQSHGNSMTELKPSSKAHLTKLKIPSQPLDASASGDVSCVDEILKEMTHSWPPPLTAIHTPCKTEPSKFPFPTKESQQSNFGTGEQKRYNPSKTSNGHQSKSMLKDDLKLSSSEDSDGEQDCDKTMPRSTPGSNSEPSHHNSEGADNSRDDSSSHSGSESSSGSDSESESSSSDSEANEPSQSASPEPEPPPTNKWQLDNWLNKVNPHKVSPASSVDSNIPSSQGYKKEGREQGTGNSYTDTSGPKETSSATPGRDSKTIQKGSESGRGRQKSPAQSDSTTQRRTVGKKQPKKAEKAAAEEPRGGLKIESETPVDLASSMPSSRHKAATKGSRKPNIKKESKSSPRPTAEKKKYKSTSKSSQKSREIIETDTSSSDSDESESLPPSSQTPKYPESNRTPVKPSSVEEEDSFFRQRMFSPMEEKELLSPLSEPDDRYPLIVKIDLNLLTRIPGKPYKETEPPKGEKKNVPEKHTREAQKQASEKVSNKGKRKHKNEDDNRASESKKPKTEDKNSAGHKPSSNRESSKQSAAKEKDLLPSPAGPVPSKDPKTEHGSRKRTISQSSSLKSSSNSNKETSGSSKNSSSTSKQKKTEGKTSSSSKEVKEKAPSSSSNCPPSAPTLDSSKPRRTKLVFDDRNYSADHYLQEAKKLKHNADALSDRFEKAVYYLDAVVSFIECGNALEKNAQESKSPFPMYSETVDLIKYTMKLKNYLAPDATAADKRLTVLCLRCESLLYLRLFKLKKENALKYSKTLTEHLKNSYNNSQAPSPGLGSKAVGMPSPVSPKLSPGNSGNYSSGASSASASGSSVTIPQKIHQMAASYVQVTSNFLYATEIWDQAEQLSKEQKEFFAELDKVMGPLIFNASIMTDLVRYTRQGLHWLRQDAKLIS
# B8: ZNF134, P52741 (protein)
# chain: MTLVTAGGAWTGPGCWHEVKDEESSSEQSISIAVSHVNTSKAGLPAQTALPCDICGPILKDILHLDEHQGTHHGLKLHTCGACGRQFWFSANLHQYQKCYSIEQPLRRDKSEASIVKNCTVSKEPHPSEKPFTCKEEQKNFQATLGGCQQKAIHSKRKTHRSTESGDAFHGEQMHYKCSECGKAFSRKDTLVQHQRIHSGEKPYECSECGKAFSRKATLVQHQRIHTGERPYECSECGKTFSRKDNLTQHKRIHTGEMPYKCNECGKYFSHHSNLIVHQRVHNGARPYKCSDCGKVFRHKSTLVQHESIHTGENPYDCSDCGKSFGHKYTLIKHQRIHTESKPFECIECGKFFSRSSDYIAHQRVHTGERPFVCSKCGKDFIRTSHLVRHQRVHTGERPYECSECGKAYSLSSHLNRHQKVHTAGRL
# B9: REL, Q04864 (protein)
# chain: MASGAYNPYIEIIEQPRQRGMRFRYKCEGRSAGSIPGEHSTDNNRTYPSIQIMNYYGKGKVRITLVTKNDPYKPHPHDLVGKDCRDGYYEAEFGQERRPLFFQNLGIRCVKKKEVKEAIITRIKAGINPFNVPEKQLNDIEDCDLNVVRLCFQVFLPDEHGNLTTALPPVVSNPIYDNRAPNTAELRICRVNKNCGSVRGGDEIFLLCDKVQKDDIEVRFVLNDWEAKGIFSQADVHRQVAIVFKTPPYCKAITEPVTVKMQLRRPSDQEVSESMDFRYLPDEKDTYGNKAKKQKTTLLFQKLCQDHVETGFRHVDQDGLELLTSGDPPTLASQSAGITVNFPERPRPGLLGSIGEGRYFKKEPNLFSHDAVVREMPTGVSSQAESYYPSPGPISSGLSHHASMAPLPSSSWSSVAHPTPRSGNTNPLSSFSTRTLPSNSQGIPPFLRIPVGNDLNASNACIYNNADDIVGMEASSMPSADLYGISDPNMLSNCSVNMMTTSSDSMGETDNPRLLSMNLENPSCNSVLDPRDLRQLHQMSSSSMSAGANSNTTVFVSQSDAFEGSDFSCADNSMINESGPSNSTNPNSHGFVQDSQYSGIGSMQNEQLSDSFPYEFFQV
# Molecular target: nucleoprotein N of Crimean-Congo hemorrhagic fever virus
# Test: AlphaScreen luminescence signal relative to Venus negative control (fold); higher = stronger binding to CCHFV N
# Experimental: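 AlphaScreen binding of cell-free made, FLAG-GST-tagged human transcription factors and regulators (crude translation products) to biotinylated N protein; signal as fold of the FLAG-GST-Venus control. One pass.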
row,Binder,AlphaScreen luminescence signal
1,B1,2.23
2,B2,2.65
3,B3,1.3
4,B4,4.88
5,B5,2.33
6,B6,2.6
7,B7,1.95
8,B8,1.49
9,B9,2.98

# Source: the supplement of paper PMC12423691
